The full ranking holds about 110,000 compounds; the median of “z-score” is about -0.1, and the highest 2% start at about 2. The list shows a part of the results. Active and inactive are the calls of the source.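 The calls were made as follows: active = z-score in the third read window above 3 or below -3; inactive = the rest.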
Target: Metabotropic glutamate receptor 8 (Rattus norvegicus) (UniProt P70579)
Experiment: mGluR8 Gi/Go-coupled signaling modulation – cell-based, rat, thallium flux, HTS, primary screen (AID 488969)
Settings: HEK293 rat mGluR8, GIRK (G protein-gated inwardly rectifying potassium channel) thallium flux, FluoZin2; at 10 µM; stronger effect = higher value; submaximal glutamate (EC20) added with thallium

Chain of UniProt P70579 (P70579 whole entry, looked up): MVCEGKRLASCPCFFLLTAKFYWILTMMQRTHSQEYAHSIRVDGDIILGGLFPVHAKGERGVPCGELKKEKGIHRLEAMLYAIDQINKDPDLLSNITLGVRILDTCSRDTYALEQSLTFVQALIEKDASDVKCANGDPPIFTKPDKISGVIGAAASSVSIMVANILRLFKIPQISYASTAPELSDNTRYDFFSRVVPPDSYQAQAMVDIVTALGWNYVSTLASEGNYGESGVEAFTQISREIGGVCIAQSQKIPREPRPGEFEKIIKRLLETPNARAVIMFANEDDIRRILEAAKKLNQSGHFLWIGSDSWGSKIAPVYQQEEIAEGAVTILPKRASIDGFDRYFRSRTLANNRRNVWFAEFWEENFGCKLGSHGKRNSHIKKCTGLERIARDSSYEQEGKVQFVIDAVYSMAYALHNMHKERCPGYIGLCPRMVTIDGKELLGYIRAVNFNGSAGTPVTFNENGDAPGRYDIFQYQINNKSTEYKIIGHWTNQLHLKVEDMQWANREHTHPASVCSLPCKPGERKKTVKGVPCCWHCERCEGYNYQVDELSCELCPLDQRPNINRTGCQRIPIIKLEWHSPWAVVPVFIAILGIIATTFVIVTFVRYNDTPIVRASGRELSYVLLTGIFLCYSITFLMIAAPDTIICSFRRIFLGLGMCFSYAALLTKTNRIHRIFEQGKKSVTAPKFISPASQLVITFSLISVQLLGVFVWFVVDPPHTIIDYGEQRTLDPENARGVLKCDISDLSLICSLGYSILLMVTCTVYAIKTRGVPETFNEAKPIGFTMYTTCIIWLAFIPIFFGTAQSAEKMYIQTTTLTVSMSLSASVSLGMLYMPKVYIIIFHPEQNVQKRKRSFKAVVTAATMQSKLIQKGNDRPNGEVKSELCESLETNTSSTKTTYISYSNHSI

Compound	z-score
CC(C)(C)c1nnc(NC(=O)c2cc(-c3ccccc3)nc3ccccc23)s1	-0.432
CCCNC(=O)Cc1c(OC)ccc2cc(Br)ccc12	0.421
Clc1ccc(-c2cc(CSc3cccc(Cl)c3)on2)cc1	-0.234
O=C(c1cc2cc(Br)cc(Br)c2oc1=O)N1CCCC1	-0.0504
COc1ccc2cc(C(=O)Nc3ccccc3)sc(=O)c2c1OC	active: 4.25
COc1ccccc1NC(=O)COc1cc(C)nc(C(C)C)n1	-0.0151
COC(=O)COc1ccc(S(=O)(=O)N2CCN(c3ccc(F)cc3)CC2)cc1	0.0507
CCOC(=O)C1=C(N)OC2=C(C(=O)CC(C)(C)C2)C1c1ccccc1OCC#N (stereo unspecified)	-0.157
COc1ccc2nc(-n3c(C)ccc3C)sc2c1	-0.0693
Cc1cccc(NS(=O)(=O)c2cc(OCC(N)=O)c(C)cc2Cl)c1	-0.0781
O=C(O)C1CCCCC1C(=O)NCCc1ccncc1 (stereo unspecified)	0.277
CCc1cccc2c1NC(=O)C21N2CCCC2C(C(=O)c2ccc3ccccc3c2)C12C(=O)Nc1ccccc12 (stereo unspecified)	-0.259
CC(=O)c1c(C)[nH]c(C(=O)Nc2ccc(C)c(C)c2)c1C	0.0111
N/C(Cc1ccc(Cl)cc1Cl)=N\OC(=O)c1cccs1	-0.117
O=C(CCn1c(=O)oc2ccccc21)NCc1cccs1	0.479
Cc1ccccc1S(=O)(=O)Cc1ccc(C(=O)O)o1	0.122
Cc1ccc(CNC(=O)C(Cc2ccccc2)NS(=O)(=O)c2ccc3c(c2)CCC(=O)N3)cc1 (stereo unspecified)	0.0976
CCc1nc2ccccc2c(C(=O)OCC(=O)NCc2ccc3c(c2)OCO3)c1C	-1.06
Cc1ccc(-n2nnnc2SCC(=O)Nc2ccc3c(c2)OCCO3)cc1C	-0.189
O=C(c1ccco1)N1CCN(S(=O)(=O)N2CCOCC2)CC1	0.61
Cc1ccc(OCc2nnc(SCC(=O)C(C)(C)C)n2Cc2ccco2)cc1	-0.302
CCN1C(=O)/C(=C/c2cccs2)N(C)C1=S	0.114
CC1C(=O)NN=C1C(=O)N/N=C\c1ccc(O)cc1O (stereo unspecified)	0.0728

Compound	z-score
O=C1C(=Cc2ccc(Br)o2)C(=O)c2ccccc21	-0.617
O=C(CSc1nnnn1C1CCCC1)Nc1cccc(NC(=O)c2ccco2)c1	-0.447
COc1cc(NC(=O)c2ccc3c(c2)OCO3)c2ncccc2c1	-0.168
CSCCC(NC(=O)c1ccccc1Br)C(=O)Nc1ccc(C)cc1 (stereo unspecified)	0.239
Cc1oc(C2CC2)cc1C(=O)O	0.166
CCC(C)N(CCNC(=O)CC1Oc2ccc(C)cc2NC1=O)C1CCCCC1 (stereo unspecified)	-0.668
CCOc1ccc(-n2c(C)nc3cc(C(=O)NCCCN4CCOCC4)ccc32)cc1	0.443
Cc1ccc(OCC(=O)NNC(=O)CSc2ncc(C#N)c(N)n2)cc1	0.231
O=C(CCN1C(=O)COc2ccccc21)NCCN1CCN(c2cccc(Cl)c2)CC1	-0.0789
O=C(CCNC(=O)c1ccccc1Cl)NCC12CC3CC(CC(C3)C1)C2	-0.16
O=C(NCc1cccnc1)c1cc(-c2cccs2)on1	-0.198
CCCCn1c(/C=C/c2ccco2)nc2ccccc21	0.0625
Nn1c(SCC(=O)NCCC2=CCCCC2)nnc1C(F)(F)F	-0.303
COc1cc(OC)c(-c2c3cc(O)c(=O)cc-3oc3cc(O)c(O)cc23)cc1OC	-2.48
O=C(NC1CCCCC1)N(C1=NCCCCC1)c1ccc(Br)cc1	-0.204
CCCc1[nH]nc2c1C(C1CCCCC1)C(C#N)=C(N)O2 (stereo unspecified)	-0.14
COc1ccc(OC)c(CCNC(=O)CC2Oc3ccc(C)cc3NC2=O)c1 (stereo unspecified)	-0.53
CC(C)CCNC(=O)CCNS(=O)(=O)c1ccc(Cl)cc1	-0.225
Cc1cc(Cn2ccnc2)c(C)cc1Cn1ccnc1	0.233
CCOC(=O)c1cnn(-c2ccccc2)c1NC(=O)c1ccc(C)cc1	-0.297
CCc1sc(C(=O)Nc2ccc(NC(C)=O)cc2)cc1C	-0.655
CC(C)N(Cc1nc(-c2ccc(Cl)cc2)no1)C(=O)C12CC3CC(CC(C3)C1)C2	0.312
Cc1ccnc(NS(=O)(=O)c2ccc(N)cc2)n1	-0.063

Compound	z-score
COC(=O)c1ccc(OCCOc2ccccc2)cc1	0.0331
Cn1c(N/N=C/c2c[nH]c3ccccc23)nc2ccccc21	-0.161
O=C(O)CCn1c(=O)[nH]c2ccccc2c1=O	0.0893
Cn1c(C(=O)O)c(CC(=O)Nc2ccc(F)cc2F)c2ccccc21	-0.847
COC(=O)NNC(=O)COc1ccccc1C	-0.341
CCCCn1nc(NC(=O)c2cccs2)c2cc3ccccc3nc21	-0.605
COc1ccc([C@@H]2[C@@H](C(=O)C(C)(C)C)N3N=Cc4ccccc4[C@@H]3C23C(=O)OC(C)(C)OC3=O)cc1OC	-0.146
COc1ccc(NC(=O)N2CCc3ccccc32)cc1	0.323
Cc1cccn2c(=O)c(/C=C(\C#N)S(=O)(=O)c3ccccc3)c(Oc3ccc(Cl)cc3)nc12	-0.262
CC(=O)C1C(c2cn(-c3ccccc3)nc2-c2cccs2)NC(=O)NC1(O)C(F)(F)F (stereo unspecified)	-0.165
O=C1/C(=C/c2ccccc2)CSc2sccc21	-0.212
O=C(CSc1nnc(CNc2cccc(Cl)c2)o1)OC1CCCCC1	-0.452
CC1CCCC(NC(=O)COC(=O)/C=C/c2ccc3c(c2)OCO3)C1C (stereo unspecified)	-0.0178
CC(=O)Nc1c(C(=O)NCc2ccccc2)nnn1Cc1ccccc1	0.153
O=C(NNC(=O)C1CCCO1)c1ccccc1Cl (stereo unspecified)	0.018
CSc1nc2nccc(-c3ccc(Cl)cc3)n2n1	-1.46
CCC1c2ccc(C)n2CCN1C(=O)Nc1cc(Cl)ccc1OC (stereo unspecified)	-2.44
COc1cccc2sc(Nc3nnc(-c4cccs4)o3)nc12	active: 17.4
Cc1onc(-c2ccccc2)c1C(=O)Oc1cccnc1	-0.687
COCc1cc(Sc2ccc(Cl)cc2)nc(-c2ccccc2)n1	0.0284
N#Cc1c(NC(=O)CSc2ncn(-c3ccccc3)n2)sc2c1CCCC2	-0.866
Cc1ccccc1OCCNc1cc(N2CCCCC2)ccc1[N+](=O)[O-]	-0.204
Cc1cc(/C=N/n2cnnc2)c(C)n1-c1ccc(OCc2ccc(Cl)cc2Cl)cc1	0.772

Compound	z-score
Cc1ccc(C(=O)N/C(=C\c2sccc2C)C(=O)NCc2ccco2)cc1	-0.235
CCOCCSC1=C(C#N)C(c2cccs2)C(C(C)=O)=C(C)N1 (stereo unspecified)	-1.52
OCc1ccccc1N=c1ssnc1Cl	-0.577
CCOc1cc(CNCC2CCCO2)cc(Br)c1OCC(N)=O (stereo unspecified)	-0.0404
CCOC(=O)CCc1cccc2c1CCC2=O	1.03
Cc1cc(NC(=O)c2ccc3nc(C)sc3c2)no1	0.132
Cc1cc2nc(CCN(Cc3cccnc3)C(=S)Nc3ccc(F)cc3)[nH]c2cc1C	0.0101
O=C(COc1ccc(-n2cnnn2)cc1)NCCc1ccc(F)cc1	-0.496
O=C(O)C1CC(=O)N(c2ccc(OCc3ccc(Cl)cc3Cl)cc2)C1 (stereo unspecified)	-0.228
O=[N+]([O-])c1ccc(Cl)c(/C=N/N2CCN(c3ccccc3)CC2)c1	-0.188
NC(=O)c1c(NC(=O)CSc2nnc(Cc3ccccc3)n2Cc2ccco2)sc2c1CCC2	-1.04
Cc1cc(NCc2ccco2)n2ncnc2n1	-0.39
O=C(NC1(C(F)(F)F)C(=O)Nc2c1c(=O)[nH]c(=O)n2-c1ccccc1)c1cccnc1 (stereo unspecified)	0.783
O=C(COc1ccccc1F)N/N=C1\CCCc2ccccc21	0.596
CC(C)NC(=O)C1CC=CCC1C(=O)O (stereo unspecified)	-0.0507
Cc1ccc(-c2cc(C(F)(F)F)n3nc(C(=O)Nc4c(C)n(C)n(-c5ccccc5)c4=O)cc3n2)cc1	-0.134
Cc1ccc(NC2=NC(=S)N(CC#N)C23CCCCC3)cc1	active: 3.98
CCC(C)(C(=O)NC1CCCCC1)N(CC1CCCO1)C(=O)c1ccccn1 (stereo unspecified)	0.0424
Cc1ccc(CCNC(=O)C2CCN(S(=O)(=O)c3cccc4nsnc34)CC2)cc1	0.195
COc1ccc(C(=O)NCC(c2cccnc2)N2CCN(c3ccccc3OC)CC2)cc1OC (stereo unspecified)	-0.178
COc1cc2c3c(c1OC)C1(C=CC(=O)C=C1)CC3N(C(C)=O)CC2 (stereo unspecified)	-0.282
C/C(CC(=O)Nc1ccc(Cl)c(C(F)(F)F)c1)=N\NC(=O)c1ccccc1O	-0.95
COc1cc(OC)cc(C(=O)N[C@H](C(=O)Nc2ccccc2N2CCOCC2)C(C)C)c1	-0.263

Compound	z-score
CCCC(=O)Nc1ccc(Cl)c(NC(=S)NC(=O)c2cc3ccccc3o2)c1	0.00926
Cc1nn(-c2ccccc2)c(N2CCCC2)c1/C=N/NC(=S)Nc1ccccc1F	2.42
CN(C)S(=O)(=O)c1ccc2c(c1)C(CC(=O)O)NC2=O (stereo unspecified)	-0.0312
COc1ccc(OCC(=O)NNC(=O)C(=O)Nc2ccc(C)cc2)cc1	2.73
CCn1c(=O)c(-c2ccccc2)c(O)c2ccccc21	1.28
c1ccc(OCc2nnc3sc(C4COc5ccccc5O4)nn23)cc1 (stereo unspecified)	0.711
O=C(NCC1CCCO1)C(=O)NCC(c1ccco1)N1CCN(c2ccccc2)CC1 (stereo unspecified)	0.0286
O=C(CCn1nnc2ccccc2c1=O)NCC1CCC(C(=O)O)CC1 (stereo unspecified)	-1.42
Cc1cc(/C=C(\C#N)c2nnc(N3CCOCC3)n2-c2ccccc2)c(C)n1-c1ccccc1	-0.52
NC(=O)CN1CCN(c2nc(-c3ccc(F)cc3)cs2)CC1	-0.0103
O=C(OCc1ccccc1)C1CCCN1C(=O)c1cccs1 (stereo unspecified)	-0.219
O=C(CNC(=O)c1cccs1)NCC(=O)OCc1ccc(Cl)cc1Cl	0.112
CCOc1ccc2c(c1)sc(N)[n+]2Cc1cc(C)cc2cccnc12	0.483
CC(=O)N1C(=O)CC(C)N(C(C)=O)c2ccc([N+](=O)[O-])cc21 (stereo unspecified)	-0.142
COc1ccc(/C=C/C(=O)OCc2csc(-c3ccccc3)n2)cc1OC	-0.29
CCCCC1(C)OC(=O)C(=Cc2ccc(N(CC)CC)cc2)C(=O)O1 (stereo unspecified)	-0.0786
CCOc1cc(C(=O)OCC(=O)Nc2cc(C)on2)cc(OCC)c1OCC	0.309
CCSc1nnc(NC(=O)C2CCN(S(=O)(=O)c3ccccc3C(F)(F)F)CC2)s1	-0.565
CN(C)C(=O)c1ccc(NC(=O)c2cccnc2)cc1	-0.188
